Data published in PubChem BioAssay AID720709 (National Center for Advancing Translational Sciences (NCATS), 2013).
Hit rate of the full screen: of about 360,000 compounds, about 520 (0.14%) were called active. The inconclusive results got no clear call from the source; some entries with a clear call stand among them for comparison. The call rests on the fitted dose curve; in most records, active means well fitted inhibition curve with a large enough effect; inconclusive means small, poorly fitted or top-dose-only effect; inactive means no such curve, though single readings can be large or run the other way. Potencies beside an inconclusive call are fits to weak or partial responses and may not hold up.

Each molecule was assayed against Rap guanine nucleotide exchange factor 3 (Homo sapiens) (UniProt O95398) (assay: qHTS for Antagonist of cAMP-regulated guanine nucleotide exchange factor 3 (EPAC1): primary screen). Conditions: EPAC1 GEF assay, Rap1b-BODIPY-GDP exchange fluorescence; series mostly up to 115 µM.
Further: nearly all actives have a fitted effect of over 50% in size.
Potency means the concentration at half of the fitted maximal effect; tags describe the fitted curve by direction and shape.

UniProt O95398, sequence (O95398 whole entry, looked up): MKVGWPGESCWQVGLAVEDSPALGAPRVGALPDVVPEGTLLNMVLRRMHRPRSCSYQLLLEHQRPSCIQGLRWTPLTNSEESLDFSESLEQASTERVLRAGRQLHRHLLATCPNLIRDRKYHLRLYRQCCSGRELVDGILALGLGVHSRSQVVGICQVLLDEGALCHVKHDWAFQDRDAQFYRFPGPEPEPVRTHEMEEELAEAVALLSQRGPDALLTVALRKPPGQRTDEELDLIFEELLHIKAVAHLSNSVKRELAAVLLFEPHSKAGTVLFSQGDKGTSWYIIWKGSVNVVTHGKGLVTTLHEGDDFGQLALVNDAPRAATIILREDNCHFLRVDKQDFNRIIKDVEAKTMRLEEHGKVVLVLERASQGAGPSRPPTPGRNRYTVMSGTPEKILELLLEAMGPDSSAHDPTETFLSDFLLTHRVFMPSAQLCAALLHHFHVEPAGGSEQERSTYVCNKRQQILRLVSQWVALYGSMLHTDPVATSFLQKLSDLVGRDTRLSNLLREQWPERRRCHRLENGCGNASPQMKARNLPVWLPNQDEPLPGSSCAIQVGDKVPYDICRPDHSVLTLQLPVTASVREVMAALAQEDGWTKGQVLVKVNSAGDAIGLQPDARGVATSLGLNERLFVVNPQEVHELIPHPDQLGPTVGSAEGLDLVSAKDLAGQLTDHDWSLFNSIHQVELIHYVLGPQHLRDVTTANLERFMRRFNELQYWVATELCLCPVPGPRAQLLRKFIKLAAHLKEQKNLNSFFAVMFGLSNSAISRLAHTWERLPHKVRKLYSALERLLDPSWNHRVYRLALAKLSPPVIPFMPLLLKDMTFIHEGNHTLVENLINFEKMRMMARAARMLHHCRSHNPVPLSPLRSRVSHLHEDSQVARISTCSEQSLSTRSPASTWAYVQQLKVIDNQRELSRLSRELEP

Potency, inactive:
CCOC(=O)C1=C(c2ccccc2)N=c2s/c(=C\c3cc(OC)c(OC)c(OC)c3)c(=O)n2C1c1cccs1 (configuration not stated)
Cc1cccc(CN2CCN(C3CN(Cc4cn(Cc5cccc(C(F)(F)F)c5)nn4)S(=O)(=O)C3)CC2)c1 (configuration not stated)
COc1cccc(S(=O)(=O)Nc2ccc3c(c2)C(=O)N(C)C[C@H](OC)[C@H](C)CN[C@@H](C)CO3)c1
Cc1ccc(C2NC(=O)NC3=C2CCc2ccccc23)cc1 (configuration not stated)
Cc1cccc(C)c1NC(=O)C1(C)CN(S(C)(=O)=O)CC(=O)N1CCc1c[nH]c2ccccc12 (configuration not stated)
CCC(C)CCN1C(Nc2ccccc2)=NC[C@@H]1C (some centres not stated)
O=C(c1ccc(F)cc1)C1CCN(C(=O)N2CCOCC2)CC1
S=C(NCc1ccco1)N/N=C/c1ccc(Cl)cc1
Cc1cccc(N(CC(=O)NCc2ccc3c(c2)OCO3)C(=O)CCC(=O)Nc2ccccn2)c1C
OCc1nc2ccccc2n1Cc1c(F)cccc1Cl
CC1(C)Cc2c(sc(NC(=S)NC(=O)c3ccccc3)c2C(=O)O)CO1
C/C(=N\NC(=S)NCc1ccccc1)c1ccc(C)o1
COc1cccc2c1C(=O)c1c(O)c3c(c(O)c1C2=O)C[C@](O)(C(C)=O)C[C@H]3O[C@@H]1C[C@@H](N)[C@@H](O)[C@@H](C)O1
COc1ccc(C(=O)NCCSc2ccccc2)cc1OC
CC(=O)c1ccc(NC(=O)CC2Nc3cccc4cccc(c34)NC2=O)cc1 (configuration not stated)
COc1cccc(CNC(=O)CCC2CCCN(C(=O)c3cc(C)on3)C2)c1 (configuration not stated)
O=C(CSc1nnc(-c2ccncc2)n1Cc1ccco1)Nc1ccccc1Cl
O=C(Nc1ccc2oc(Cc3ccc(Cl)cc3)nc2c1)c1cccnc1
COc1ccc(CNC(=S)NC(C)CCc2ccccc2)cc1 (configuration not stated)

Potency, active:
CCCCCCCCCCCCN1[C@@H](CC(=O)O)c2cc(F)ccc2S1(=O)=O 79.4 µM

Potency, inconclusive:
CC(C)Sc1nnc(Cn2c(=O)sc3ccccc32)n1-c1ccccc1 39.8 µM [inhibitor, single point]
Cc1ccc(NC(=O)CN2C(=O)S/C(=C\c3ccc(OCC(=O)O)c(Br)c3)C2=O)cc1 100 µM [inhibitor, single point]
O=C(NC(=S)Nc1ccc(Br)cc1)C1CCC1 31.6 µM [inhibitor, full curve, poor fit]
Cc1ccc(CNS(=O)(=O)c2ccc(-n3cnnn3)c(C)c2)cc1 15.8 µM [inhibitor, full curve, poor fit]
COCCn1c(SCC(=O)Nc2nc(C)cs2)nnc1C(C)C 63.1 µM [inhibitor, partial curve, poor fit]
COc1ccc2cc(/C=C3\SC(=S)NC3=O)c(N3CCOCC3)nc2c1 89.1 µM [inhibitor, single point]
Cc1ccc(-c2noc(CCC(=O)N3CCN(c4cc(C)ccc4C)CC3)n2)cc1 79.4 µM [inhibitor, partial curve]
CN(C)S(=O)(=O)c1cccc(NC(=O)CSc2nc3ccccc3n2-c2ccccc2)c1 89.1 µM [inhibitor, single point]
CN(CC(=O)Nc1cccc(F)c1)C(=O)CCCc1c[nH]c2ccccc12 89.1 µM [inhibitor, single point]
O=C(O)CCn1cc(/C=C/C(=O)c2ccc(Cl)cc2)c(-c2ccc(Br)cc2)n1 50.1 µM [inhibitor, partial curve]
O=C(CCn1c(=O)sc2ccccc21)Nc1nccs1 100 µM [inhibitor, single point]
O=C(c1ccco1)N1CCN(C(=O)N2CCCC2)CC1 89.1 µM [inhibitor, single point]
O=C(Nc1cccc([N+](=O)[O-])c1)Nc1ccc2c(c1)CCC2 79.4 µM [inhibitor, single point]
COc1cc(S(=O)(=O)NC2CCCC2)ccc1-n1cnnn1 17.8 µM [inhibitor, full curve, poor fit]
NC(=O)c1sc2nc(-c3cccnc3)ccc2c1N 22.4 µM [inhibitor, full curve, poor fit]
Clc1ccccc1-c1nnc2sc(-c3ccncc3)nn12 89.1 µM [inhibitor, single point]
COc1ccc2nc(/C=N/NC(=O)[C@H](CCSC)NC(=O)OC(C)(C)C)ccc2c1 79.4 µM [inhibitor, single point]
COc1ccc(-c2cc(=O)oc3cc(OCC(=O)Nc4ccc(CCO)cc4)ccc23)cc1 70.8 µM [inhibitor, partial curve, poor fit]
CCOC(=O)C1=C(CSc2nc3c(cc2C#N)CN(C)CC3)OC(N)=C(C#N)C1c1ccc(Cl)cc1 (configuration not stated) 25.1 µM [inhibitor, partial curve]
CSc1nc2c(c(C(F)(F)F)n1)CC(C)CC2 (configuration not stated) 100 µM [inhibitor, single point]
NC(=S)N/N=C\c1c(OCc2ccccc2Cl)ccc2ccccc12 44.7 µM [inhibitor, full curve, poor fit]
CCOC(=O)COc1ccc2c(=O)c(-c3ccc(OC)c(OC)c3)c(C(=O)OCC)oc2c1 79.4 µM [inhibitor, single point]
CCc1ccc(Nc2ccc(S(=O)(=O)N3CCOCC3)cc2[N+](=O)[O-])cc1 56.2 µM [inhibitor, partial curve]
CCCCC(=O)Nc1ccc(NC(=S)NC(=O)CC)cc1OC 89.1 µM [inhibitor, single point]
CC(=O)C(=Cc1ccc(Cl)cc1)C(=O)c1ccccc1 25.1 µM [inhibitor, full curve, poor fit]
COc1ccccc1OCC(=O)Nc1ccc2c(c1)C(=O)N(CC1CCCO1)C2=O (configuration not stated) 89.1 µM [inhibitor, single point]
CNC(=O)c1cccc(NC(=O)C(C)c2ccc3cc(OC)ccc3c2)c1 (configuration not stated) 25.1 µM [inhibitor, full curve]
CNC(=S)/N=C/NOCc1ccc(Cl)cc1Cl 79.4 µM [inhibitor, single point]
CCN1C(=O)c2cccc3c(N)ccc1c23 89.1 µM [inhibitor, single point]
CCOc1ccccc1NC(=O)CCS(=O)(=O)c1ccc2c(c1)CC(C)N2C(C)=O (configuration not stated) 89.1 µM [inhibitor, single point]
CC(C)CCNC(=O)C1CCN(S(=O)(=O)c2ccc(-n3cnnn3)cc2)CC1 100 µM [inhibitor, partial curve, poor fit]
COc1ccc(/C(N)=N/OC(=O)c2ccco2)cc1OC 31.6 µM [inhibitor, full curve]
O=C(O)c1ccc(N/N=C/c2ccc(OC(=O)c3cccc(Cl)c3)cc2)cc1 10 µM [inhibitor, partial curve, poor fit]
Cc1ccc(NC(=O)c2cc(S(=O)(=O)N3CCc4ccccc43)cn2C)cc1C 70.8 µM [inhibitor, single point]
CCC(C)OC(=O)c1[nH]c2c(c1C)C(=O)CC(c1ccc(N(C)C)cc1)C2 (configuration not stated) 44.7 µM [inhibitor, partial curve]
CCOc1ccc(NC(=NCc2ccc3c(c2)OCO3)SC2CC(=O)N(c3ccccc3)C2=O)cc1 (configuration not stated) 89.1 µM [inhibitor, single point]
O=C(COC(=O)/C=C/c1ccc(C(F)(F)F)cc1)NC(=O)NCc1ccco1 50.1 µM [inhibitor, partial curve]
NNc1cccc(C=Cc2ccccc2)cc1=O 50.1 µM [inhibitor, partial curve]
COc1ccc(OC)c(/C=N/NC(=O)c2cc3c(OC)cc(OC)cc3[nH]2)c1 89.1 µM [inhibitor, single point]
CCCn1c(/C=C/c2ccco2)nc2ccccc21 89.1 µM [inhibitor, single point]
O=C(Cc1c(F)cccc1Cl)Nc1ccccc1N1CCCCC1 44.7 µM [inhibitor, full curve, poor fit]
COc1ccc(NS(=O)(=O)c2cc(NC(=O)COc3ccccc3F)ccc2OC)cc1 70.8 µM [inhibitor, single point]
S=C(NCc1cccc(Cl)c1)NC1CCCCC1 44.7 µM [inhibitor, partial curve]
COc1ccc(NC(=O)c2cc(-c3ccco3)nc3ccccc23)cn1 39.8 µM [inhibitor, single point]
CN(CC(=O)Nc1ccc(Cl)cc1)C(=O)c1ccc(S(=O)(=O)Nc2ccccc2)cc1 2.82 µM [inhibitor, full curve, poor fit]
COc1ccc(-c2nn(CCC#N)cc2/C=N/O)cc1OC 50.1 µM [inhibitor, partial curve]
Cc1ccc(C(C(=O)Nc2ccc3c(c2)OCO3)N(C)C(=O)Cc2c[nH]c3ccccc23)cc1 (configuration not stated) 2.82 µM [inhibitor, full curve]
